Assay: Body weight reduction by multiple subcutaneous injections in DIO mice
Type: in vivo, C57BL/6Nju mice
Protocol: In this example, the effect of subcutaneous injection of the Fc fusion protein 1 on the body weight of DIO mice was studied, and the efficacy was compared with dulaglutide and semaglutide.
7-week-old C57BL/6Nju mice were fed with a high-fat diet (of about 20% protein and about 60% fat) for 12 weeks for modeling. Feeding conditions: 12 hours of light and 12 hours of darkness every day, ad libitum to feed and water, temperature 20-25° C., relative humidity 40-70%, ventilation frequency 10-15 times/hour.
According to body weight, water consumption, and food intake, the mice were randomly divided into groups the day before administration. Group design: 30 nmol/kg dulaglutide group, 30 nmol/kg semaglutide group, high dose (30 nmol/kg) group and low dose (10 nmol/kg) group of the same test sample, normal control group, model control group. A total of 6 groups with 6 mice in each group.
The subcutaneous injection was conducted as follows: the model control group and the normal control group were administrated with 0.05 ml/10 g body weight of PBS, twice a week for 4 consecutive weeks, a total of 8 times of administration. The body weight, food intake, and water consumption of mice were monitored regularly.
After the administration, the animals were dissected, and the liver, kidney, pancreas, inguinal fat, subcutaneous fat, scapular fat, perirenal fat, mesenteric adipose, and epididymal fat were separated and weighed. The data were shown as mean±standard error (X±s), and statistically analyzed by Student-t test.

B1: Fc fusion protein 1: GLP-1 mutant (SEQ ID NO: 7) fused by linker to IgG4 Fc fragment; SEQ ID NO: 12 (protein)
chain: HSQGTFTSDYSKYLDEQAAKEFIAWLIAGGPSSGAPPPSGGGGGSGGGGSGGGGSA[human IgG4 Fc with S228P F234A L235A (EU numbers) omitted]
modifications: Fc Fusion Protein 1
weight reduction effect, low dose (10 nmol/kg s.c. twice a week for 4 weeks, compared with 30 nmol/kg semaglutide): equivalent to that of the semaglutide high dose group
weight reduction effect, high dose (30 nmol/kg s.c. twice a week for 4 weeks, compared with 30 nmol/kg semaglutide): significantly better weight reduction effects than those of the same dose of semaglutide
food intake (10 and 30 nmol/kg s.c., compared with semaglutide group): could reduce the food intakes of mice at different doses, and the food intakes were all fewer than those of the semaglutide group
fat mass (after 4 weeks of administration, compared with semaglutide): could significantly reduce the fat mass of DIO mice, and the effect was equivalent to semaglutide

— patent publication US12509496B2 (Shanghai Minwei Biotechnology Co., LTD, priority 2020, dated 2025)
